For 28 compounds, cytotoxicity call and growth inhibition call results are on record in the antibiotic and cytotoxicity screens of Wong et al. (2023).

Some of the results follow.

Assay [1] concerns HSkMC (human skeletal muscle cells). Briefly: cytotoxicity call (relative viability < 0.9). As to conditions: 10 µM.
In assay [2] the test system is HepG2. Briefly: cytotoxicity call (relative viability < 0.9). As to conditions: 10 µM.
Assay [3] deals with S. aureus RN4220. As to the kind of experiment: growth inhibition call (relative growth <= 0.2). As to conditions: 50 µM.

As to `Cc1noc(C)c1S(=O)(=O)Nc1ccc2c(c1)CC(=O)N([C@@H](C)CO)C[C@@H](C)[C@H](CN(C)Cc1ccc(C(=O)O)cc1)O2`, the cytotoxicity call in assay [1] and in assay [2] was “inactive” throughout. Besides, the growth inhibition call in assay [3] is “inactive”.
For `CC(C)NC(=O)Nc1cccc2c1O[C@@H](CN(C)Cc1ccc3c(c1)OCO3)[C@@H](C)CN([C@H](C)CO)C2=O`, the cytotoxicity call in assay [1] and in assay [2] was “inactive” in each case. In addition, the growth inhibition call in assay [3] is “inactive”.
With `C[C@@H]1CN([C@@H](C)CO)C(=O)Cc2cc(NS(=O)(=O)c3ccc(F)cc3)ccc2O[C@@H]1CN(C)CC1CC1`, the cytotoxicity call in assay [1] and in assay [2] was “inactive” in each case. In assay [3], the growth inhibition call was “inactive”.
For the compound `OCc1ccc2c(c1)NCCO2`, the cytotoxicity call in assay [1] and in assay [2] was “inactive” in each case. In assay [3], the growth inhibition call was “inactive”.
As for `CC(C)N1C(=O)NC(=O)[C@@H]1CC(=O)O`, the cytotoxicity call in assay [1] and in assay [2] was “inactive” in each case. Besides, the growth inhibition call in assay [3] was “inactive”.
As to `CN1C(=O)c2cc(NC(=O)c3cnccn3)ccc2OC[C@H]2O[C@H](CC(=O)N[C@H]3CCN(Cc4ccccc4)C3)CC[C@@H]21`, the cytotoxicity call in assay [1] and in assay [2] was “inactive” throughout. In addition, the growth inhibition call in assay [3] was “inactive”.
In the case of `Cn1cnc(CCNC(=O)C[C@@H]2CC[C@H]3[C@@H](COC[C@H](O)CN3C(=O)Nc3ccc(C(F)(F)F)cc3)O2)c1`, the cytotoxicity call in assay [1] and in assay [2] was “inactive” each time. Moreover, the growth inhibition call in assay [3] was “inactive”.
`CC(C)CC#Cc1ccc2c(c1)O[C@H](CN(C)C(=O)NC1CCCC1)[C@H](C)CN([C@@H](C)CO)S2(=O)=O`: the cytotoxicity call in assay [1] and in assay [2] was “inactive” throughout. Moreover, the growth inhibition call in assay [3] is “inactive”.
Regarding `C[C@@H]1CCCCO[C@H](CN(C)Cc2ccccc2)[C@@H](C)CN([C@@H](C)CO)C(=O)c2cc(NC(=O)Nc3ccc4c(c3)OCO4)ccc2O1`, the cytotoxicity call in assay [1] and in assay [2] was “inactive” each time. Moreover, the growth inhibition call in assay [3] was “inactive”.
On to `C[C@@H]1CN([C@@H](C)CO)S(=O)(=O)c2ccc(C#CC3(O)CCCC3)cc2O[C@H]1CN(C)C(=O)Cc1ccncc1`, for which the cytotoxicity call in assay [1] and in assay [2] was “inactive” each time. Further, the growth inhibition call in assay [3] is “inactive”.
As to `C[C@@H]1CN([C@@H](C)CO)C(=O)c2cc(NC(=O)Cc3ccccc3)ccc2O[C@@H]1CN(C)C(=O)Nc1ccc(C(F)(F)F)cc1`, the cytotoxicity call in assay [1] and in assay [2] was “inactive” in each case. Moreover, the growth inhibition call in assay [3] is “inactive”.
On to `COc1ccc(CNC(=O)c2cc3c(c(-c4cccc(-c5cccc(C#N)c5)c4)n2)[C@@H](CCO)N([S@](=O)C(C)(C)C)C3)cc1`, for which the cytotoxicity call in assay [1] and in assay [2] was “inactive” throughout. Besides, in assay [3], the growth inhibition call was “inactive”.
`CC(C)NC(=O)Nc1ccc2c(c1)CC(=O)N([C@@H](C)CO)C[C@H](C)[C@H](CN(C)S(=O)(=O)c1ccc(F)cc1)O2`: the cytotoxicity call in assay [1] and in assay [2] was “inactive” in each case. For the same compound, the growth inhibition call in assay [3] is “inactive”.
In the case of `Cc1noc(C)c1S(=O)(=O)Nc1cccc2c1O[C@@H](CN(C)S(C)(=O)=O)[C@@H](C)CN([C@H](C)CO)C2=O`, the cytotoxicity call in assay [1] and in assay [2] was “inactive” each time. Besides, the growth inhibition call in assay [3] was “inactive”.
On to `CCCN(C)C[C@H]1OCCCC[C@H](C)Oc2ccc(NC(=O)Nc3ccc(C(F)(F)F)cc3)cc2C(=O)N([C@@H](C)CO)C[C@H]1C`, for which, in assay [1], the cytotoxicity call was “inactive”. In assay [2], the cytotoxicity call is “active”. The growth inhibition call in assay [3] is “active”.
In the case of `CC(C)NC(=O)N(C)C[C@@H]1OCCCC[C@@H](C)Oc2ccc(NC(=O)CCCCCC(=O)Nc3ccccc3N)cc2C(=O)N([C@H](C)CO)C[C@@H]1C`, the cytotoxicity call in assay [1] and in assay [2] was “inactive” each time. The growth inhibition call in assay [3] is “inactive”.
Regarding `C[C@H](CO)N1C[C@H](C)[C@H](CN(C)C(=O)c2cccc(F)c2)Oc2cc(-c3cccnc3)ccc2S1(=O)=O`, the cytotoxicity call in assay [1] and in assay [2] was “inactive” each time. Also, the growth inhibition call in assay [3] is “inactive”.
Take `C[C@@H]1CCCCO[C@@H](CN(C)C)[C@@H](C)CN([C@H](C)CO)C(=O)c2cc(NS(=O)(=O)c3cn(C)cn3)ccc2O1`: the cytotoxicity call in assay [1] and in assay [2] was “inactive” throughout. For the same compound, the growth inhibition call in assay [3] is “inactive”.
Regarding `NCc1nnnn1-c1ccccc1`, the cytotoxicity call in assay [1] and in assay [2] was “inactive” throughout. Further, the growth inhibition call in assay [3] was “inactive”.
For `COc1ccccc1C#Cc1ccc2c(c1)O[C@@H](CN(C)Cc1cncnc1)[C@@H](C)CN([C@@H](C)CO)S2(=O)=O`, the cytotoxicity call in assay [1] and in assay [2] was “inactive” in each case. For the same compound, in assay [3], the growth inhibition call is “inactive”.
Regarding `COc1cccc(OC)c1O`, the cytotoxicity call in assay [1] and in assay [2] was “inactive” throughout. In addition, in assay [3], the growth inhibition call is “inactive”.
`CN1CCN(C(=O)C[C@@H]2C[C@@H]3c4cc(NS(=O)(=O)c5ccc(F)cc5)ccc4O[C@@H]3[C@@H](CO)O2)CC1`: the cytotoxicity call in assay [1] and in assay [2] was “inactive” throughout. The growth inhibition call in assay [3] was “inactive”.
For `COc1ccc(NC(=O)Nc2ccc3c(c2)C(=O)N([C@@H](C)CO)C[C@H](C)[C@@H](CN(C)Cc2ccc(Cl)c(Cl)c2)OCCCC[C@@H](C)O3)cc1`, the cytotoxicity call in assay [1] and in assay [2] was “inactive” throughout. Besides, the growth inhibition call in assay [3] is “inactive”.
`CO[C@@H]1CN(C)C(=O)c2cc(NC(=O)CCCC[C@@H]3SC[C@@H]4NC(=O)N[C@@H]43)ccc2OC[C@@H](C)N(Cc2ccc(-c3ccccn3)cc2)C[C@@H]1C`: the cytotoxicity call in assay [1] and in assay [2] was “inactive” throughout. The growth inhibition call in assay [3] is “inactive”.
Take `Cc1noc(C)c1S(=O)(=O)Nc1ccc2c(c1)CC(=O)N([C@@H](C)CO)C[C@@H](C)[C@H](CN(C)CC1CC1)O2`: the cytotoxicity call in assay [1] and in assay [2] was “inactive” throughout. Moreover, the growth inhibition call in assay [3] was “inactive”.
Take `Cc1noc(C)c1S(=O)(=O)Nc1ccc2c(c1)C(=O)N([C@@H](C)CO)C[C@@H](C)[C@@H](CN(C)C)OCCCC[C@H](C)O2`: the cytotoxicity call in assay [1] and in assay [2] was “inactive” each time. Moreover, the growth inhibition call in assay [3] was “inactive”.
With `COc1ccccc1NCC(=O)NN`, the cytotoxicity call in assay [1] and in assay [2] was “inactive” in each case. Further, the growth inhibition call in assay [3] is “inactive”.
Regarding `C[C@@H]1CN([C@H](C)CO)C(=O)c2cccc(NC(=O)c3nc4ccccc4s3)c2O[C@H]1CN(C)Cc1ccc(Cl)c(Cl)c1`, the cytotoxicity call in assay [1] and in assay [2] was “inactive” each time. For the same compound, in assay [3], the growth inhibition call was “inactive”.
